Over roughly 33,000 sequences, “E-score (-0.5 to 0.5)” has its median near -0.01; the highest 2% begin near 0.26. This is one part of the list.
The sequences below were run against Ste12 (UniProt P13574) (assay: PBM E-score (8-mer binding enrichment) (E-score (-0.5 to 0.5)); higher = stronger / more preferred TF binding; most listed sequences are background and not binding sites). Settings: protein concentration: 200 nM; construct: GST-DNA-binding domain.
How it was run: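 Using PURExpress in vitro transcription/translation, GST-tagged yeast transcription factors were made in full-length or DNA-binding-domain form. These were applied at about 100-200 nM to double-stranded universal all-10-mer Agilent arrays, and bound protein was detected with fluorescent anti-GST. Scans were normalised with masliner before the Universal PBM Analysis Suite assigned E-scores to ungapped eight-base words pooled with their reverse complements.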

Sequence | PBM E-score
CGAAGTAG | -0.186
ACGCAGGC | -0.088
AAGTCCTG | -0.137
TAAGGTGA | -0.0689
AAAAAGGA | 0.0687
TGTTAAAA | 0.168
CCTGAAGC | -0.107
ATATTAAA | 0.29
CGGTACCA | -0.0434
CTTTACGA | -0.0396
ACACACCG | -0.00474
AGTCTCTG | -0.13
ATCAAGTC | -0.0521
CAGCGGGA | -0.137
AGAAAATC | 0.176
ACGATTTC | 0.0655
AGATCGAT | 0.042
CCGTGAAC | -0.0201
CGATTTTA | 0.259
ACCCACAG | -0.131
CGCGAATA | 0.0618
CAGAAATC | 0.0243
CAGACGTC | -0.15
AAGGTTCT | 0.0379
CTATGTCC | -0.134

Sequence | PBM E-score
CCTGGTTC | -0.0593
AAGAAAAC | 0.275
ATATCGAA | 0.184
ATACGGAC | -0.0508
ACGATCTC | -0.112
ATTCGATA | 0.184
CAAGACGC | 0.165
GGAAAAAA | 0.309
CACCAAGG | -0.0541
GAGAAAAA | 0.147
TCCGGTAA | 0.015
ATGCTACC | 0.083
AAAGCGAT | 0.09
CGCTACAG | -0.0906
CGTAATGC | -0.155
AATACCTA | 0.0687
TCAAGAAA | 0.256
AGAAGCAT | 0.0473
CCCATGGG | 0.157
GTATACTA | -0.0508
GCAGGTAC | -0.204
ACCATGGG | -0.124
GCCGCAAA | 0.147
TATTAGAA | 0.0955
ACCCTAAA | 0.163

Sequence | PBM E-score
AGGAAAAA | 0.16
CGTCTGCC | -0.0908
ATTCTTGC | 0.19
GCTCGGAC | -0.236
AGAGCATA | -0.0337
CGCAGCAC | -0.0772
AATATGGG | 0.119
CTTGCTCA | -0.116
ACATACAT | 0.263
ACAGCAAA | 0.144
CGTGGAAA | 0.19
ACACCCGG | -0.0238
AGTTGCAT | -0.0636
GCCGGAAC | 0.2
ACATTTCA | 0.0519
ATAGTTCA | -0.0273
AATCCCGA | 0.255
ATAATGCA | 0.0574
GTCACCCA | -0.106
CTTACACA | -0.0439
AACAGGCA | -0.148
GTAGCAAC | -0.17
CACGTTGG | -0.0653
ACGGCGCG | -0.115
ACTCCATA | -0.0663

Sequence | PBM E-score
ATAGCCGC | -0.016
CGTCGACC | -0.0841
CACCGCAG | 0.057
CGTTTAGA | 0.0822
GAGCGCCA | -0.15
AACTACGC | 0.0692
AAGACCAG | -0.15
GATATATC | -0.00788
ACTGAGTA | -0.148
CTGGAATA | 0.0549
GTCCACAC | -0.05
TCAGCCAA | -0.0131
ATCTCGCA | 0.107
AGAATGCG | 0.038
AGCAGCCG | 0.0132
ATGTCACA | 0.239
TGATGGAA | 0.0104
AATGTGAG | 0.00388
GTTTAAAA | 0.3
AAGACTAA | 0.132
ATTTCAGG | 0.112
GCCATTGA | -0.0202
CCAACTTA | 0.0138
GAAGCTGC | -0.0801
CCTTTGAC | 0.0362

Sequence | PBM E-score
CTCTTGGC | -0.0666
CGCGTCAC | -0.0307
CGAAGGCA | -0.141
ATGTTGGC | 0.112
AAGTGACC | -0.135
TAGCGCTA | -0.0612
ATCGGTAC | -0.0762
ATCATAGA | 0.0892
AAGGACGT | -0.0421
TATGGGGA | 0.195
ACATGCCG | -0.00746
AAAGTCGT | -0.0472
AAGCGGCT | 0.0417
ATCCCAAC | -0.00567
CAAAACTG | 0.116
CTATCGTC | -0.248
CTGGCTTC | -0.0802
ACGAAAAC | 0.25
CTAGTAAA | 0.194
ACAGGCGA | -0.213
ACAGCTCG | -0.157
GACCTTCA | -0.206
CGACTGCC | -0.0302
ATTAAACG | 0.155
AGCAGCAT | -0.203

Sequence | PBM E-score
CGAGCTGA | 0.0044
AGGTGACC | -0.111
GGTGTTCA | -0.0821
CCCACACC | 0.0495
ACTACTCC | 0.0344
GATGTATA | 0.0546
TCCTGGAA | -0.0685
CACGGCGA | 0.00223
CCTTCACA | 0.146
AACTTCTG | 0.0938
CCGCGTAC | -0.07
ACCGACGC | -0.0512
CCAAGGGA | -0.18
CTGACGGA | -0.0925
ACACCAAG | -0.103
AATCGAGC | -0.123
GGACACTA | -0.167
AGTATCGA | 0.111
ACACCCAA | 0.0218
AGGCATTG | -0.0128
CGACAGCG | -0.0915
TACGAATA | 0.0491
GCTAAGGA | -0.048
ACCCGCCG | 0.137
ACAGGACA | -0.00224

Sequence | PBM E-score
CGCACTGA | -0.243
AAGTTGCT | -0.134
CTAGCGTA | -0.281
AGACTAGC | -0.224
GTACCTAC | -0.325
ACCTGTTA | -0.0567
CTCACCGA | -0.00381
ACTTTTGC | 0.109
CGCTCCCA | -0.00923
CCTAACTA | 0.0845
ATAGCCGG | -0.111
CCTCCATA | -0.0991
CTACACAA | -0.0125
GGCACCCA | -0.101
CCCGTAGG | -0.172
AAAGCGTT | 0.0336
GACAGGGA | -0.138
CGAGTTAG | 0.0577
AAGGCTAA | -0.0258
GACTGCCC | -0.0715
GATGGAGC | -0.176
GCAGTGGA | -0.0364
